Measurements taken from PubChem BioAssay AID1619 (SRMLSC, 2009).
The campaign covered roughly 220,000 compounds. About 830 (0.38%) were called active. This list was built around the results that the source calls inconclusive (neither active nor inactive); the mix of calls is not that of the screen.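 Rule for the calls: active = compound inhibiting the enzyme by more than half at any dose during confirmatory dose-response retesting; inconclusive = strong single-dose inhibitors picked by rank but not retested; inactive = the rest.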

Biological target: Leucine aminopeptidase (Plasmodium falciparum (isolate 3D7)) (UniProt Q8IL11)
UniProt Q8IL11, sequence (Q8IL11 whole entry, looked up): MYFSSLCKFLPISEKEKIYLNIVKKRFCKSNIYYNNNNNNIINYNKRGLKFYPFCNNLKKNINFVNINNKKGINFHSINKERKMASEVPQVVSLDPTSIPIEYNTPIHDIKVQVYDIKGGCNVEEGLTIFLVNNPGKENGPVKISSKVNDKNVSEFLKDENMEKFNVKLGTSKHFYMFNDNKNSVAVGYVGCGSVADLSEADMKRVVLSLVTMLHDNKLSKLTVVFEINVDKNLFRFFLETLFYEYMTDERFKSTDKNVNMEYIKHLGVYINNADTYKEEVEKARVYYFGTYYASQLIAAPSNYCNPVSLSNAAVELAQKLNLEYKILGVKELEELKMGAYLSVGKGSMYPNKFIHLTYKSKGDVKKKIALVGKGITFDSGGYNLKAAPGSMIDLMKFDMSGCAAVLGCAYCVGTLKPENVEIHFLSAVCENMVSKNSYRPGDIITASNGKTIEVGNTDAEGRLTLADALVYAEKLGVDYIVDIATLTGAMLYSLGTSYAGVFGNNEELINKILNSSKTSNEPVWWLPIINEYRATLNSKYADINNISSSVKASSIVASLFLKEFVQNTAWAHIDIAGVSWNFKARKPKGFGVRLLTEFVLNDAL
Assay: P. falciparum M17LAP inhibitors, primary screen, biochemical, fluorogenic H-Leu-NHMec substrate, 1536-well (AID 1619);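 note: plate controls were full reaction with DMSO carrier for no effect and no enzyme background for full effect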
Details: recombinant M17LAP, H-Leu-NHMec fluorogenic kinetic assay; at 30 µM; active compounds read high

| Compound | inhibition |
| --- | --- |
| Cc1cccc(NC(=O)CSc2nnc(-c3ccco3)c(-c3ccco3)n2)c1 | inconclusive: 58.5% |
| Cc1c(CCO)c(=O)oc2n[nH]c(-c3ccccc3)c12 | inconclusive: 64.8% |
| O=C(CSc1nc2nc(-c3cccs3)cc(C(F)(F)F)c2c(=O)[nH]1)NCc1ccco1 | inconclusive: 130% |
| CN1C2CCC1/C(=C\c1ccccc1)C(=O)/C2=C\c1ccccc1 | inactive: 5.66% |
| COc1ccc(/C(C)=N/Nc2ccc(C(=O)O)cc2)cc1OC | inconclusive: 67.7% |
| Cc1ccc(NC(=O)CN2C(=O)N/C(=C/c3cc(C)n(-c4cccc(C(=O)O)c4)c3C)C2=O)cc1 | inconclusive: 76.9% |
| N#Cc1c(-c2ccccc2)nc(SCC(=O)Nc2ccccc2)[nH]c1=O | inconclusive: 81.8% |
| O=C(NCC1COc2ccccc2O1)C1C2C=CC3(CN(Cc4ccccc4Cl)C(=O)C13)O2 (centres undefined) | inconclusive: 71.6% |
| CCOC(=O)c1cc2c(=O)n3ccccc3nc2n(CCCOC)c1=NC(C)=O | inconclusive: 89.9% |
| O=C(NCC1COc2ccccc2O1)C1CCC(CNc2c(N3CCCCC3)c(=O)c2=O)CC1 (centres undefined) | inconclusive: 89.8% |
| COC(=O)c1cc(NC(C)=O)ccc1N1CCOCC1 | inactive: 8.76% |
| CCOc1cc(C(=O)OCC(=O)Nc2cc(C)on2)ccc1OCC(C)C | inactive: -3.97% |
| CCn1c(C)nc2cc(C(=O)n3cc(C(=O)c4ccccc4O)cn3)ccc21 | inconclusive: 69.9% |
| C=CCc1c(C)[nH]c(=S)c(C#N)c1C | inconclusive: 58.1% |
| COc1ccccc1C1C2=C(N=c3s/c(=C/c4cccc(OCC(=O)O)c4)c(=O)n31)c1ccccc1CC2 (centres undefined) | inconclusive: 59.5% |
| O=C(CSc1ncn[nH]1)c1ccc2c(c1)OCO2 | inconclusive: 73.2% |
| COC(=O)c1[nH]c2c(c1C)C(=O)CCC2 | inactive: 6.36% |
| Cc1ccc(-c2[nH]nc3c2C(c2ccccc2OC(=O)N2CCOCC2)C(C#N)=C(N)O3)cc1 (centres undefined) | inconclusive: 99.4% |
| Cc1cc(SCC(=O)c2ccc(O)c(O)c2)n2nc(C)c(-c3ccccc3)c2n1 | inactive: 16.1% |
| O=C1NC(=O)/C(=C\c2ccc(O)cc2O)S1 | inconclusive: 59.5% |
| CCOc1ccc(N2C(=O)/C(=C/c3ccccc3)N=C2SC)cc1 | inactive: 2.97% |

| Compound | inhibition |
| --- | --- |
| Cc1ccc(NC(=O)CN2C(=O)N/C(=C/c3cccn3-c3ccc(C(=O)O)cc3)C2=O)cc1 | inconclusive: 63.7% |
| Cc1nn(-c2ccccc2Cl)c(Cl)c1/C=N/Nc1cccc(C(=O)O)c1 | inconclusive: 68.5% |
| CCCc1nnc(NC(=O)CCC(=O)NCc2ccc(OC)cc2)s1 | inactive: 13.8% |
| O=C1C=C(NCc2ccc3c(c2)OCO3)CC(c2ccccc2)C1 (centres undefined) | inconclusive: 63.2% |
| Cc1cc(C(=O)Nc2sc3c(c2C#N)CCC(C(C)(C)C)C3)no1 (centres undefined) | inactive: -3.46% |
| O=C1NN(c2ccc(Cl)cc2)C(=O)/C1=C\c1ccc(-c2cccc(C(=O)O)c2)o1 | inconclusive: 57.7% |
| Cc1cccc(C(=O)NC(=S)NNC(=O)c2cccs2)c1 | inconclusive: 101% |
| CC1=CC(C2CC(=O)N(c3ccccc3C)C2=O)CC2C(=O)N(c3ccccc3C)C(=O)C12 (centres undefined) | inactive: 3.8% |
| O=C(CSc1ccccn1)Nc1cccc2ccccc12 | inactive: 6.7% |
| Cc1ccc(NC(=O)COC(=O)Cc2csc(-c3ccc(Cl)cc3)n2)cc1C | inactive: 5.09% |
| NC(=O)[C@@H]1CCNc2c(I)cc([N+](=O)[O-])cc2C(=O)N[C@@H](CCC(=O)O)C(=O)N[C@@H](CO)C(=O)N1 | inconclusive: 60.8% |
| O=C(CSc1nnc(-c2ccccc2)n1Cc1ccccc1)NNC(=O)c1ccccc1O | inactive: 10.4% |
| Cc1cccc(NC(=O)CSc2nnc(Cc3ccccc3)o2)c1 | inconclusive: 59.1% |
| COc1ccc(OCc2cccc(C(=O)O)c2)cc1 | inactive: 53.7% |
| O=C1CC(=O)C(n2cncn2)C(c2ccc(Cl)cc2)C1 (centres undefined) | inactive: 41.7% |
| O=S(=O)(Nc1cc(Sc2ncn[nH]2)c(O)c2ccccc12)c1ccccc1 | inconclusive: 79.7% |
| CC(C)C[C@@H]1NC(=O)[C@H](C(C)C)NC(=O)c2cc([N+](=O)[O-])cc(I)c2OCC[C@@H](C(N)=O)NC1=O | inconclusive: 87.5% |
| CC(C)N=c1scc(-c2ccco2)n1/N=C/c1ccc(O)c(O)c1 | inconclusive: 68.2% |
| COc1ccc(NC(=O)Nc2ccc(N(C)C)cc2)cc1 | inconclusive: 63.4% |
| Cc1[nH][nH]c(=O)c1C(c1ccc(-c2ccc(Cl)c(C(=O)O)c2)o1)c1c(C)[nH][nH]c1=O | inconclusive: 59.4% |
| CC(C)Oc1ccc(-c2nn(-c3ccccc3)cc2/C=c2\sc3ncnn3c2=O)cc1 | inconclusive: 86.5% |

| Compound | inhibition |
| --- | --- |
| O=C(CSc1nnc(-c2ccco2)c(-c2ccco2)n1)Nc1ccccc1 | inconclusive: 71.8% |
| COCCOC(=O)C1=C(C)NC(=O)NC1c1c(F)cccc1Cl (centres undefined) | inactive: -12.3% |
| CN(C)c1cccc(C(=O)n2cc(C(=O)c3cc(F)ccc3O)cn2)c1 | inconclusive: 77.5% |
| CCCC(C(=O)O)N1C(=O)/C(=C/c2cccn2C)SC1=S (centres undefined) | inconclusive: 64.3% |
| Cc1ccc(S(=O)(=O)Nc2ccc(O)c(Sc3ncn[nH]3)c2)cc1 | inconclusive: 94.9% |
| CCn1c(SCC(=O)c2ccc(C)cc2)nnc1-c1ccncc1 | inactive: 3.05% |
| COc1cc(/C=C(\C#N)c2nc3ccc(C)cc3[nH]2)cc([N+](=O)[O-])c1O | inconclusive: 58% |
| O=C(O)c1ccc(NS(=O)(=O)c2ccc3c(c2)C2C=CCC2C(c2ccccc2F)N3)cc1 (centres undefined) | inconclusive: 75.1% |
| Cc1c(Br)c(=O)oc2c(Br)c(O)c(O)cc12 | inactive: 45.5% |
| O=C(c1ccccc1)c1c2c(cc3sc4ccccc4[n+]13)-c1cccc3cccc-2c13 | inconclusive: 103% |
| O=C(O[C@@H]1OC2COC(=O)c3cc(O)c(O)c(O)c3-c3c(cc(O)c(O)c3O)C(=O)O[C@@H]([C@H]1O)[C@@H]2O)c1cc(O)c(O)c(O)c1 | inconclusive: 58.6% |
| CC(=O)Oc1ccc2c(=O)c(Oc3ccccc3)coc2c1OC(C)=O | inconclusive: 73.5% |
| CCOC(=O)C1(CC2CC2)CCN(Cc2cn[nH]c2-c2cccc(F)c2)CC1 | inactive: -3.31% |
| NC(=O)CC(NC(=O)Cc1ccc(Br)cc1)c1ccc(NCc2ccc(F)c(F)c2)c([N+](=O)[O-])c1 (centres undefined) | inactive: -2.21% |
| CCn1c(C)cc(/C=C2/SC(=S)N(CC(=O)O)C2=O)c1C | inconclusive: 59.1% |
| C/C(=N\NC(=O)Cc1cccn1C)c1ccc2ccccc2c1 | inactive: 32.5% |
| Cc1ccc2c(c1)c1nnc(SCC(=O)Nc3cccc(Cl)c3C)nc1n2CC(=O)O | inconclusive: 83.5% |
| CCCC(C)NS(=O)(=O)c1ccc(OC)c(C)c1 (centres undefined) | inactive: 1.13% |
| COc1ccc(N/N=C(/C#N)S(=O)(=O)C(C)(C)C)cc1 | inactive: 5.23% |
| Cc1[nH][nH]c(=O)c1C(c1c(C)[nH][nH]c1=O)c1cn(C)c2ccccc12 | inconclusive: 63% |
| COC(=O)c1cc(C)sc1NC(=O)C1C2C=CC(CC2)C1C(=O)O (centres undefined) | inactive: 47% |

| Compound | inhibition |
| --- | --- |
| O=C(O)c1ccc(/C=N/Nc2ccc(C(F)(F)F)cn2)cc1 | inconclusive: 61.2% |
| N#Cc1c(-c2ccccc2)nc(SCC(=O)Nc2ccccc2F)[nH]c1=O | inconclusive: 58.9% |
| O=C(O)Cn1cc(/C=C2\SC(=O)N(c3ccccc3)C2=O)c2ccccc21 | inactive: 15% |
| N#CC1=C(N)n2c(s/c(=C\c3cccs3)c2=O)=C(C#N)C1c1cccs1 (centres undefined) | inconclusive: 59.9% |
| CC(=O)Oc1ccc2c(=O)c(Oc3ccccc3)c(C)oc2c1OC(C)=O | inconclusive: 66.1% |
| CC(C)C(C(=O)O)N1C(=O)/C(=C/c2cccn2C)SC1=S (centres undefined) | inconclusive: 71.2% |
| CC[n+]1c(C=C2C=C(C)OC(C)=C2)sc2ccccc21 | inconclusive: 80.3% |
| O=c1cc(-c2ccccc2)[nH][nH]1 | inconclusive: 95.6% |
| Cc1ccc(S(=O)(=O)/N=C2/C=C(Sc3ncn[nH]3)C(=O)c3ccccc32)cc1 | inconclusive: 76% |
| Cc1cccc(-c2csc(N)c2C(=O)OC(C)C)c1 | inconclusive: 64% |
| Cc1ccc(S(=O)(=O)/N=C2/C=C(Sc3ncn[nH]3)C(=O)c3ccccc32)c(C)c1 | inconclusive: 61.3% |
| CCOC(=O)CSc1nnc(NC(=O)c2cc([N+](=O)[O-])cc([N+](=O)[O-])c2)s1 | inconclusive: 73.9% |
| CC(=O)NNC(=S)NC(=O)c1ccccc1 | inconclusive: 89.3% |
| CC1(C)CC(=O)C(Sc2nnc(-c3ccc(NS(C)(=O)=O)cc3)n2Cc2ccco2)C(=O)C1 | inconclusive: 56.8% |
| O=C(Nc1ccc2c(c1)OCCO2)C1CCC1 | inactive: -5.9% |
| N#C/C(=C/c1ccc(-c2cc(C(=O)O)cc(C(=O)O)c2)o1)c1nc2ccccc2s1 | inconclusive: 57.1% |
| COc1ccc(-c2cc(=O)oc3c(C)c(OCc4nn[nH]n4)ccc23)cc1 | inconclusive: 64.1% |
| Cn1cccc1/C=C1\SC(=S)N(CC(=O)O)C1=O | inconclusive: 98.8% |
| O=c1/c(=C/c2ccco2)sc2nc(-c3ccccc3Br)nn12 | inconclusive: 68.4% |
| O=C(CCCN1C(=O)c2cccc3cccc(c23)C1=O)NCCN1CCOCC1 | inactive: 4.16% |
| CC(=O)/C(C#N)=C1\NC(=O)C(Cc2cc(Cl)ccc2Cl)S1 (centres undefined) | inactive: 45.6% |
